Paper PMC4336329 (PLoS ONE, 2015)
Screen size: about 310,000 compounds; about 14,000 (4.5%) showed an effect of 50% or more. Effects have a minus sign here. The list shows a part of the results.

The compounds below were run against human ether-à-go-go-related gene (hERG) potassium channel (human, UniProt Q12809) (assay: primary screen, population patch clamp on CHO cells stably expressing hERG).
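Note: peak tail current of the secondary pulse compared with the same well before compound.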

Chain of human ether-à-go-go-related gene (hERG) potassium channel (Q12809 whole entry, looked up): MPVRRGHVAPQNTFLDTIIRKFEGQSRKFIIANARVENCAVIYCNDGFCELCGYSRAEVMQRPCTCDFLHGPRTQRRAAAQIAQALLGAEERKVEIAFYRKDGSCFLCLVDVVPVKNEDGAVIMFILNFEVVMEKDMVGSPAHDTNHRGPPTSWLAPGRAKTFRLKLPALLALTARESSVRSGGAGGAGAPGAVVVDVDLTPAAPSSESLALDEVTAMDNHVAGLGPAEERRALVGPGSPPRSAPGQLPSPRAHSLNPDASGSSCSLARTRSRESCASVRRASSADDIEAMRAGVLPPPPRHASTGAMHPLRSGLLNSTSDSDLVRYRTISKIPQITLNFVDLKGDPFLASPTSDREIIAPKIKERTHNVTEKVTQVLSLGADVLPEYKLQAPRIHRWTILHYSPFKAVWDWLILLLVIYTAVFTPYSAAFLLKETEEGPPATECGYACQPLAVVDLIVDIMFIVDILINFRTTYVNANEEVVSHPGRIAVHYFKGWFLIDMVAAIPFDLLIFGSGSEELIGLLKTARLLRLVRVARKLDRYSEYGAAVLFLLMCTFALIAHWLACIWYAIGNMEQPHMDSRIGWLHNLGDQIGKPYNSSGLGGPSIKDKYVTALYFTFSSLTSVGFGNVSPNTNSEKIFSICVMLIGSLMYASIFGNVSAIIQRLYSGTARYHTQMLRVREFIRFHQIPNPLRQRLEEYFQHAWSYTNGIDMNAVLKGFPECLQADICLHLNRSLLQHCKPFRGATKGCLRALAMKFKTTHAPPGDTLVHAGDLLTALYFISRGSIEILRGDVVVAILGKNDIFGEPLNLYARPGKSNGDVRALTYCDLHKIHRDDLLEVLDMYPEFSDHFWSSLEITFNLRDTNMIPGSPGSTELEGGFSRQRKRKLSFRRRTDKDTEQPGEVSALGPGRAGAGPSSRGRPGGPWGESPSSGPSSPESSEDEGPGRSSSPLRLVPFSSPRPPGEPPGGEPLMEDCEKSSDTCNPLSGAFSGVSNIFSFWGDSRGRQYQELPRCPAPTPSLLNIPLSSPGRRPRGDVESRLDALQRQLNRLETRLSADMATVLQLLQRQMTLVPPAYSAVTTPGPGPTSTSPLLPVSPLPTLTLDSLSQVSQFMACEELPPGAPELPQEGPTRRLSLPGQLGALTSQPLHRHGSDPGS

Structure (SMILES) | hERG current change (%, negative = inhibition) at 10uM [%]
CCS(=O)(=O)N1CCCC(C(=O)NCCc2ccccc2)C1 (centres unmarked) | -28.3
O=C(Nc1ccccc1N1CCN(C(=O)c2ccccc2)CC1)c1ccc(Cl)cc1 | -73.2
Cc1nnc(N/N=C/c2cccc(OCc3ccc(Cl)c(Cl)c3)c2)n1N.Cl | 8.08
Cc1ccc(C=C2C(=O)c3ccccc3C2=O)s1 | -0.492
CN1CCN(CCCNC(=O)C2CCN(c3nnc(-n4cccc4)s3)CC2)CC1 | 20.2
COc1ccc(C(=O)OCC(=O)Nc2cccc(C(C)=O)c2)c(OC)c1OC | -33
COC(=O)c1ccc(CSc2nc3c(cnn3-c3ccc(C)c(C)c3)c(=O)[nH]2)o1 | 8.51
Cc1cc(SCc2ccc(F)cc2)nc(=O)[nH]1 | 8.12
COc1ccc(S(=O)(=O)Nc2cc3c4c(c2)CCN4C(=O)CC3)cc1OC | -7.56
COc1ccc(NS(=O)(=O)c2cccc(C(=O)NC3CCN(Cc4ccccc4)CC3)c2)cc1 | -46.7
Nc1[nH]n(-c2ccccc2)c(=O)c1N=Nc1ccc2c(c1)OCCO2 | 6.01
CC(=O)OC(C(=O)NCc1ccc2c(c1)OCO2)c1ccccc1Cl (centres unmarked) | 14
Cc1ccc(S(=O)(=O)NCC(=O)OCC(=O)c2cc(C)n(-c3ccccc3)c2C)cc1 | -12.5
O=S(=O)(NCCc1ccncc1)c1cc(Br)ccc1F | -10.3
O=C(COc1ccccc1)n1nc(-c2ccc(Cl)cc2)nc1NCc1ccco1 | -12.5
COc1ccc(S(=O)(=O)Nc2ccc3c(c2)n(C)c(=O)n3C)cc1F | 16.3
COc1cccc(NC(=O)CSc2ccc3nnc(-c4ccncc4)n3n2)c1 | -22.7
Cc1ccc(S(=O)(=O)NCCCCCC(=O)N(C)C)cc1 | 6.32
CCC(Sc1nc(C)cc(C)n1)C(=O)NC1=NN=C(c2ccc(C)cc2)CS1 (centres unmarked) | -3.24

Structure (SMILES) | hERG current change (%, negative = inhibition) at 10uM [%]
Cc1ccc(-c2nnc(SCC(=O)Nc3ccccc3F)o2)cc1 | 6.53
O=C(O)CCn1c2ccccc2c2nc3ccccc3nc21 | 11.6
O=C(CC(NC(=O)c1ccccc1Cl)c1ccccc1)Nc1ccc2c(c1)OCO2 (centres unmarked) | 11.4
Cc1nc(NCc2ccco2)c2c3c(sc2n1)CCC3 | -24.3
CCOC(=O)C1=C(COC(=O)COc2ccccc2C#N)NC(=O)NC1C (centres unmarked) | 11.1
COc1cc(NC(=O)CSC(=S)N2CCCC2)c(OC)cc1Cl | 25.5
CCOC(=O)c1ccc(NC(=O)CCc2nc(-c3ccc(C)cc3)no2)cc1 | 5.14
O=C(O)c1cc(N2C(=O)C3C4C=CC(C4)C3C2=O)ccc1N1CCOCC1 (centres unmarked) | 6.73
CC1CCc2nn(CC(=O)NCc3ccc4c(c3)OCO4)cc2C1 (centres unmarked) | -10.5
Cc1ccc(C)c(CN2CCN(c3ncccn3)CC2)c1 | 0.844
O=S(=O)(NC1CCN(S(=O)(=O)c2ccc3c(c2)OCCO3)C1)c1c(F)cccc1F (centres unmarked) | -5.22
O=C(NCCCn1ccnc1)/C(=C\c1ccco1)NC(=O)c1ccco1 | -35.3
COc1ccc2nc(CCN(C)C(=O)C3CCC(=O)N(Cc4cccc(F)c4)C3)[nH]c2c1 (centres unmarked) | 8.91
Cc1cc(C)cc(OCC(=O)N2Cc3ccccc3CC2C(=O)O)c1 (centres unmarked) | 0.818
COc1ccc(C(c2c(NC(=O)c3ccco3)sc(C)c2C)N2CCOCC2)cc1OC (centres unmarked) | -15
COc1ccccc1N1CCN(CC(=O)Nc2ccnn2C2CCCC2)CC1 | 3.01
CCN(CC)C(=O)c1nc[nH]c1C(=O)N1CCN(c2ccccc2)CC1 | 17.5
CN1C2CCC1CC(NC(=O)CSCc1ccc(Cl)cc1Cl)C2 (centres unmarked) | -57.4
CCOc1cc(/C=N/n2cnnc2)ccc1OS(=O)(=O)c1ccccc1 | -57.7

Structure (SMILES) | hERG current change (%, negative = inhibition) at 10uM [%]
CC(=O)Nc1ccc(NC(=O)c2ccc(COc3ccccc3Br)o2)cc1 | 17.1
COc1ccc(NC(=O)CN2C(=O)CC(C)(C)S(=O)(=O)c3ccccc32)cc1 | -5.29
CNCCCC1Sc2ccccc2Oc2ccccc21.O=C(O)C(=O)O (centres unmarked) | -16.1
COc1cc(C2NC(=O)c3ccccc3O2)cc(OC)c1OC (centres unmarked) | -9.55
COC(=O)C1C(=O)c2c([nH]c(C(=O)OC3CCCC3C)c2C)CC1C (centres unmarked) | 6.17
O=C(Nc1ccc(Oc2cccnc2)nc1)c1ccc(C(F)(F)F)cc1 | -30
O=C(CC1CCCCC1)Nc1ccccc1-c1ccccc1 | 6.47
N=C1c2ccccc2CN1NC(=O)CC12CC3CC(CC(C3)C1)C2 | -5.03
CCCc1nnc(SCC(=O)N2CCCCC2)n1CCCOC | 12
CCOC(=O)C(=CNc1ccc(Oc2cncc(Cl)c2)nc1)C(=O)OCC | -27.9
Cc1cccc(C(C(N)=O)c2ncc(C(F)(F)F)cc2Cl)c1 (centres unmarked) | -0.224
NC(=O)C1(N2CCCCC2)CCN(C(=O)c2ccc(-n3cnnn3)cc2)CC1 | -30.6
CCCCOc1ccc(C(C)NC(=O)C2CCCN(S(=O)(=O)CC)C2)cc1 (centres unmarked) | 9.13
COC(=O)c1ccc(Oc2ccc(C(C)(C)C)cc2)c([N+](=O)[O-])c1 | 11.7
Cc1ccc(S(=O)(=O)N(Cc2ccccc2)c2ccccc2C(=O)NCc2ccco2)cc1 | 1.72
Cc1ccc(C(=O)N2CCN(c3ccc(NC(=O)COc4ccccc4C)cc3)CC2)cc1 | -73.6
CC1(C(=O)OCC(=O)Nc2ccccc2)CC1(Cl)Cl (centres unmarked) | 7.96
O=C(c1cc(-c2ccc(Cl)cc2)on1)N1CCc2ccccc2C1 | 9.65
